Experimental data from PubChem BioAssay AID686979 (National Center for Advancing Translational Sciences (NCATS), 2013).
The whole screen tested about 420,000 compounds, of which about 50,000 (12%) were called active. The inconclusive results got no clear call from the source; some entries with a clear call stand among them for comparison. Calls follow the shape of the dose curve; as a rule, active = well fitted inhibition curve with a large enough effect; inconclusive = small, poorly fitted or top-dose-only effect; inactive = flat fitted curve, though single readings scatter. No potency is given beside an inconclusive call; the fits are too rough.

assay: qHTS for Inhibitors of human tyrosyl-DNA phosphodiesterase 1 (TDP1): qHTS in cells in presence of CPT; settings: chicken DT40 Tdp1-/-;hTDP1 cells + 20 nM CPT, ATP luminescence, 48 h; activity change, negative = growth inhibition: at 46.2 µM (top of the series); also: nearly all actives have a fitted effect of over 55% in size
Procedure, shortened: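 Cell growth measured by CellTiter-Glo luminescence after a minimum 48 h, 37 C compound exposure with 20 nM CPT in Tdp1-knockout DT40 cells stably expressing hTDP1, seeded 400/well; qHTS titration format.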
% is scaled to controls: 0 for no effect and ±100 for the full control effect; potency is read from the fitted curve at half-maximal effect; tags tell the direction and shape of the fitted curve.

Row | SMILES | Potency | activity change, negative = growth inhibition
1 | Cc1ccc2scc(N3CCN(c4cccc(C(F)(F)F)c4)CC3)c(=O)c2c1 | inconclusive [inhibitor, single point] | –
2 | Fc1cccc(Cl)c1C1Nc2cccc3cccc(c23)N1 | active: 23.1 µM | –
3 | CCN(Cc1ccncc1)C(=S)Nc1ccccc1C | inactive | –
4 | COC(=O)CN1C(=O)C(C)(C)c2cc(S(=O)(=O)NCc3ccc(Cl)cc3)ccc21 | – | inconclusive: -32.2% [inhibitor]
5 | Cc1ccc(N2CC(C(=O)N3CCC4(CC3)CC(=O)c3ccccc3O4)CC2=O)cc1 (stereo not given) | inconclusive [inhibitor, single point] | –
6 | CCCCN(CCCC)C1=C(C(=O)c2ccccc2)N(CC)S(=O)(=O)c2ccccc21 | active: 13 µM | –
7 | CC(C)N(Cc1ccccc1)C(=O)COC(=O)c1cc[n+]([O-])cc1 | inactive | –
8 | COc1ccc(-c2c(NC(=O)c3ccco3)oc3c(C)cccc3c2=O)cc1OC | inconclusive [inhibitor, single point] | –
9 | CCOC(=O)C1(Cc2cccc(OC)c2)CCN(Cc2cc(OC)ccc2OC)CC1 | inconclusive [inhibitor, single point] | –
10 | COC(=O)C[C@H]1c2cc(F)ccc2S(=O)(=O)N1C1CC1 | inconclusive [inhibitor, single point] | –
11 | CC1Cc2ccccc2N1C(=O)CSc1nc2c(c(=O)n(C)c(=O)n2C)n1Cc1ccc(F)cc1 (stereo not given) | inconclusive [inhibitor, partial curve, poor fit] | –
12 | COc1ccc(NC(=O)N2CCN(C(=O)c3ccco3)CC2)c(OC)c1 | inactive | –
13 | COc1cccc(CN(CC2CCCO2)S(=O)(=O)c2ccc(S(=O)(=O)NCC3CCCO3)cc2)c1OC (stereo not given) | – | inconclusive: -31.1% [inhibitor]
14 | Cc1ccc(OCc2nc(C#N)c(NCc3ccc4c(c3)OCO4)o2)cc1 | inconclusive [inhibitor, single point] | –
15 | COc1cc(C(=O)NCC2CCCO2)cc(Br)c1OCc1ccccc1 (stereo not given) | inconclusive [inhibitor, single point] | –
16 | CN(C)C(=O)CSc1nc(-c2ccccc2)nc2c1CCCC2 | inconclusive [inhibitor, single point] | –
17 | C#CCNC(=O)C1=C[C@@H](C)[C@H](CCCO)[C@@H](OCC)O1 | inconclusive [inhibitor, single point] | –
18 | CCn1c(COc2ccc(Cl)cc2)nnc1SCc1ccc(C#N)cc1 | inactive | –
19 | O=C(CSc1nnnn1-c1ccccc1)CSc1nnnn1-c1ccccc1 | inconclusive [inhibitor, partial curve] | –
20 | COc1ccc(CNc2oc(-c3cccc4ccccc34)nc2C#N)cc1 | inconclusive [inhibitor, partial curve, poor fit] | –
21 | Cc1cc(C)c(S(=O)(=O)N2CCN(C(=O)c3ccc(-n4cncn4)c([N+](=O)[O-])c3)CC2)c(C)c1 | inconclusive [inhibitor, single point] | –
22 | CCN(CC)C(=O)CSc1nc2c(sc(=S)n2-c2ccccc2)c(=O)n1-c1ccccc1OC | active: 9.2 µM | –
23 | Cc1nc2sccn2c1-c1csc(NCc2ccccc2)n1 | active: 16.4 µM | –
24 | O=C(Cn1c(C(F)(F)F)nc2ccccc21)c1ccccc1 | inconclusive [inhibitor, partial curve] | –

Row | SMILES | Potency | activity change, negative = growth inhibition
25 | Cc1ccc(S(=O)(=O)c2nnn3c2nc(N2CCCCC2)c2ccccc23)cc1 | inconclusive [inhibitor, single point] | –
26 | Cc1ccc(CS(=O)Cc2ccc(C(=O)N3CCN(c4ccc(F)cc4)CC3)o2)cc1 (stereo not given) | inconclusive [inhibitor, partial curve] | –
27 | CC(=N\NC(=O)c1cc(Br)ccc1O)/C(=N/O)C(=O)Nc1ccccc1 | inconclusive [inhibitor, single point] | –
28 | Cc1nn(Cc2c(F)c(F)c(F)c(F)c2F)c(C)c1NC(=O)c1cccc(COc2ccc(Cl)cc2)c1 | active: 10.3 µM | –
29 | Cc1nnsc1C(=O)NC(C)c1ccccc1 (stereo not given) | – | inconclusive: 7.24% [inhibitor]
30 | Cc1ccc(-c2[nH]nc(N)c2N=Nc2cccc(Cl)c2C)cc1 | inconclusive [inhibitor, single point] | –
31 | Cc1ccc2nc(SCC(=O)NCc3ccc(F)cc3)[nH]c2c1 | inconclusive [inhibitor, partial curve] | –
32 | CCCOc1cccc(C(=O)NC(=S)Nc2ccccc2)c1 | inconclusive [inhibitor, single point] | –
33 | CC(Sc1nc2ccccc2c(=O)n1C)C(=O)N(C)C1CCCCC1 (stereo not given) | active: 10.3 µM | –
34 | CC(C)(C)C1CCc2c(sc(NC(=O)CSc3ncn[nH]3)c2C#N)C1 (stereo not given) | inconclusive [inhibitor, single point] | –
35 | O=C(O)c1ccc(NS(=O)(=O)c2ccc(Cl)c(Cl)c2)cc1O | – | inconclusive: -32% [inhibitor]
36 | CC(=O)c1c(C)[nH]c(C(=O)CSc2nnc(-c3cccs3)n2Cc2ccccc2)c1C | inconclusive [inhibitor, single point] | –
37 | CCOc1ccc(N=C2NC(=O)S/C2=C\c2ccc(Cl)cc2)cc1 | inactive | –
38 | O=C(CN(C(=O)c1csnn1)c1ccccc1F)NC1CCCCC1 | inactive | –
39 | CCc1ccc2[nH]c(=O)c(CN(Cc3ccc(F)cc3)C(c3nnnn3CCN3CCOCC3)C(C)C)cc2c1 (stereo not given) | inconclusive [inhibitor, single point] | –
40 | Cc1cccc(NC(=O)CSCC(=O)Nc2ccccc2N2CCCCC2)c1 | inactive | –
41 | CC(C)c1ccc(NC(=O)C2Cc3ccccc3N2C(=O)c2ccccc2)cc1 (stereo not given) | active: 18.4 µM | –
42 | CCNC(=S)NC1CC2CCCC(C1)N2Cc1ccc(C)cc1 (stereo not given) | inconclusive [inhibitor, single point] | –
43 | O=C(Cn1nc(-c2ccc(Cl)cc2)ccc1=O)NCCCN1CCN(Cc2ccccc2)CC1 | inconclusive [inhibitor, single point] | –
44 | Cc1cc(C)cc(-n2c(C)cc(/C=C3\C(=N)N4N=C(CC(C)C)SC4=NC3=O)c2C)c1 | inconclusive [inhibitor, single point] | –
45 | COc1ccc(CCNC(=O)c2ccc(Cl)cc2Cl)cc1OC | inactive | –
46 | O=C(c1cccc(O)c1)N1CCN(C(=O)C2CC2)CC1 | inactive | –
47 | Cc1cc(C(=O)Nc2cccc3cccnc23)ccc1[N+](=O)[O-] | inactive | –
48 | N=c1n(Cc2ccccc2)c2ccccc2n1CC(O)c1ccco1 (stereo not given) | active: 20.6 µM | –

Row | SMILES | Potency | activity change, negative = growth inhibition
49 | Cc1ccc(O)c(-c2cc(-c3ccccc3C)[nH]n2)c1 | inconclusive [inhibitor, single point] | –
50 | COc1ccccc1CNC(=O)c1ccc(CSc2nc3ccncc3n2Cc2ccccc2C)cc1 | inconclusive [inhibitor, single point] | –
51 | O=C(O)C1CCC1C(=O)Nc1nc(-c2ccc(Cl)s2)cs1 (stereo not given) | inactive | –
52 | O=C(NC1CCCCC1)C(c1ccc(C(F)(F)F)cc1)n1c(=O)c(-c2ccccc2)nc2ccccc21 (stereo not given) | inconclusive [inhibitor, single point] | –
53 | O=C(Nc1ncc(Cc2ccccc2)s1)C1=NCCN1 | inactive | –
54 | CCNC(=O)COC(=O)/C=C/c1cccc(F)c1 | inactive | –
55 | COc1cc(-c2ccccc2)[nH]c(=S)n1 | inconclusive [inhibitor, single point] | –
56 | Cc1ccccc1NC(=S)NCC1CCC(CNC(=S)Nc2ccccc2C)CC1 (stereo not given) | inconclusive [inhibitor, single point] | –
57 | CCOC(=O)c1ccc(NC(=S)N2CCSC2c2ccc(OC)cc2)cc1 (stereo not given) | inactive | –
58 | CCC(=O)Nc1nc2ccc3nc(C)sc3c2s1 | inconclusive [inhibitor, partial curve] | –
59 | Cc1ccc2cc(/C=N/Nc3ccc(C(=O)O)cc3)c(Cl)nc2c1 | inconclusive [inhibitor, single point] | –
60 | CCOC(=O)c1c(NC(=O)CC2Nc3cc(C)c(C)cc3NC2=O)sc(C)c1C (stereo not given) | inconclusive [inhibitor, single point] | –
61 | Cc1onc(-c2ccccc2)c1C(=O)NC(=S)NNC(=O)c1cc(-c2ccc(F)cc2)n[nH]1 | inconclusive [inhibitor, single point] | –
62 | CN1CCN(S(=O)(=O)c2ccc(N3CCN(S(=O)(=O)/C=C/c4ccccc4)CC3)nc2)CC1 | active: 18.4 µM | –
63 | C=CCn1c(SCC(=O)NC2CCCC2)nc2scc(-c3ccco3)c2c1=O | inconclusive [inhibitor, single point] | –
64 | CC(C)CC1(C2CCCC2)NC(=O)NC1=O (stereo not given) | inactive | –
65 | CC(=O)/C(N)=N/Nc1cccc(Cl)c1 | inactive | –
66 | Cc1ccc(-n2ncc(C(=O)N3CCN(c4ncccn4)CC3)c2C2CCN(C(=O)OC(C)(C)C)CC2)cc1 | inactive | –
67 | CCSc1nc(C)c(C)c(=O)[nH]1 | inconclusive [inhibitor, full curve, poor fit] | –
68 | COc1ccc(-c2nc(SC(C)C(=O)c3c(N)n(C)c(=O)n(C)c3=O)n[nH]2)cc1 (stereo not given) | inconclusive [inhibitor, single point] | –
69 | COc1cc(NC(=O)Cn2nnc(-c3ccncc3)n2)cc(OC)c1 | inconclusive [inhibitor, partial curve] | –
70 | CCOC(=O)C1CCCN(Cc2cccc(Oc3ccccc3)c2)C1 (stereo not given) | inconclusive [inhibitor, single point] | –
